The RNAGym collection of RNA variant scans (doi:10.1073/pnas.2313332121)
This sample is rich in variants without activity.

B1: TPR 5TU (parent)
chain: GGAUCUUCUCGAUCUAACAAAAAAGACAAAUCUGCCACAAAGCUUGAGAGCAUCUUCGGAUGCAGAGGCGGCAGCCUUCGGUGGCGCGAUAGCGCCAACGUUCUCAACUAUGACACGCAAAACGCGUGCUCCGUUGAAUGGAGUUUAUCAUG

Variants of: B1
Assay: polymerase ribozyme fitness, log enrichment relative to wild type (log ratio); higher = more active; in vitro selection for triplet polymerase activity
Summary of the method: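 Genotype fitness is the logarithm of its enrichment divided by wild-type enrichment, using inverse-variance-weighted averages of replicates. That logarithm is base 2. Enrichment was measured by Illumina sequencing of input and output libraries from one triplicate in vitro selection round, with frozen incubation at −7 °C, on PCR-built, transcribed mutant libraries of each subunit of a heterodimeric triplet polymerase ribozyme, retaining genotypes with ≥10 input reads and ≥1 read per output.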
With U13G A47C U53A G92A G126U G143A the “polymerase ribozyme fitness (log ratio)” value was no more than -4.2.
With U13G A49C the “polymerase ribozyme fitness (log ratio)” value was no more than -4.2.
With U13G A49C G94C G133A the “polymerase ribozyme fitness (log ratio)” value was no more than -4.2.
With U13G A52C C85G G86U C129G the “polymerase ribozyme fitness (log ratio)” value was no more than -4.2.
In the case of U13G A60U C96A A150C, the “polymerase ribozyme fitness (log ratio)” value is reported as no more than -4.2.
For U13G A106G, the “polymerase ribozyme fitness (log ratio)” value was -1.5.
For U13G A137U, the “polymerase ribozyme fitness (log ratio)” value was no more than -4.2.
For U13G C14G U31G, the “polymerase ribozyme fitness (log ratio)” value was -1.43.
With U13G C14U A52G G92C the “polymerase ribozyme fitness (log ratio)” value was no more than -4.2.
With U13G C14U A52U U56A G92U the “polymerase ribozyme fitness (log ratio)” value was no more than -4.2.
With U13G C18U U53A U56A C85A C93U A97U the “polymerase ribozyme fitness (log ratio)” value was no more than -4.2.
In the case of U13G C27A C36U A40C A60G A138G, the “polymerase ribozyme fitness (log ratio)” value is reported as no more than -4.2.
In the case of U13G C27G A40C A89U C95A A121U, the “polymerase ribozyme fitness (log ratio)” value is reported as no more than -4.2.
In the case of U13G C27G G80C C103G A106C A115U A137G, the “polymerase ribozyme fitness (log ratio)” value is reported as no more than -4.2.
For U13G C27U U55A G141C, the “polymerase ribozyme fitness (log ratio)” value was no more than -4.2.
With U13G C32A C87U G92A G100U C123G C125U the “polymerase ribozyme fitness (log ratio)” value was no more than -4.2.
With U13G C32A G86C A107G C125G U135A the “polymerase ribozyme fitness (log ratio)” value was no more than -4.2.
For U13G C32G A49U G83U G86U C87U C103A A150G, the “polymerase ribozyme fitness (log ratio)” value was no more than -4.2.
In the case of U13G C35A G50A C54A C76G C87G A89U A107C G136A A137G G143U, the “polymerase ribozyme fitness (log ratio)” value is reported as no more than -4.2.
In the case of U13G C35U A49C A107U, the “polymerase ribozyme fitness (log ratio)” value is reported as no more than -4.2.
With U13G C36A G83U C99A G140U the “polymerase ribozyme fitness (log ratio)” value was -4.
In the case of U13G C38A C93G C116G A122G, the “polymerase ribozyme fitness (log ratio)” value is reported as no more than -4.2.
For U13G C38U C57A U61A C69U U104C, the “polymerase ribozyme fitness (log ratio)” value was no more than -4.2.
For U13G C38U C63U C76U A91G C93G C95U C149U, the “polymerase ribozyme fitness (log ratio)” value was no more than -4.2.
In the case of U13G C43A U55C U61A A97G, the “polymerase ribozyme fitness (log ratio)” value is reported as no more than -4.2.
In the case of U13G C43G G59A, the “polymerase ribozyme fitness (log ratio)” value is reported as no more than -4.2.
In the case of U13G C43U C51U C93G C105A C108U A115U A137C U148A, the “polymerase ribozyme fitness (log ratio)” value is reported as no more than -4.2.
With U13G C51U G86A C103G the “polymerase ribozyme fitness (log ratio)” value was no more than -4.2.
For U13G C57A G58U G62A C93U A97U A106G, the “polymerase ribozyme fitness (log ratio)” value was no more than -4.2.
For U13G C57U C96G, the “polymerase ribozyme fitness (log ratio)” value was -1.66.
For U13G C69A, the “polymerase ribozyme fitness (log ratio)” value was no more than -4.2.
With U13G C69A A73G C87U the “polymerase ribozyme fitness (log ratio)” value was no more than -4.2.
With U13G C75G the “polymerase ribozyme fitness (log ratio)” value was no more than -4.2.
With U13G C75U A91C the “polymerase ribozyme fitness (log ratio)” value was no more than -4.2.
In the case of U13G C76A, the “polymerase ribozyme fitness (log ratio)” value is reported as -2.11.
With U13G C76U C85G C125U U139G the “polymerase ribozyme fitness (log ratio)” value was no more than -4.2.
With U13G C85U C96U G100A A115C the “polymerase ribozyme fitness (log ratio)” value was no more than -4.2.
For U13G C87G, the “polymerase ribozyme fitness (log ratio)” value was no more than -4.2.
With U13G C96A the “polymerase ribozyme fitness (log ratio)” value was -0.681.
For U13G C96G A120G, the “polymerase ribozyme fitness (log ratio)” value was -1.51.
With U13G G25C A40U C85A the “polymerase ribozyme fitness (log ratio)” value was no more than -4.2.
For U13G G34A U44A C57G C93U, the “polymerase ribozyme fitness (log ratio)” value was no more than -4.2.
With U13G G42A U56G G86U G133C G143U U146C the “polymerase ribozyme fitness (log ratio)” value was no more than -4.2.
In the case of U13G G46A G83A U101A U134A U135C, the “polymerase ribozyme fitness (log ratio)” value is reported as no more than -4.2.
With U13G G48A C75A C93G C125U the “polymerase ribozyme fitness (log ratio)” value was no more than -4.2.
In the case of U13G G48A C93A C125G, the “polymerase ribozyme fitness (log ratio)” value is reported as no more than -4.2.
In the case of U13G G50C A60C C79U G94A A97U A98U, the “polymerase ribozyme fitness (log ratio)” value is reported as no more than -4.2.
In the case of U13G G58A C95U C96G, the “polymerase ribozyme fitness (log ratio)” value is reported as -4.19.
With U13G G58C G88A G100A U104A C116G the “polymerase ribozyme fitness (log ratio)” value was no more than -4.2.
For U13G G59A C85U A110U, the “polymerase ribozyme fitness (log ratio)” value was no more than -4.2.
With U13G G59A C93A A113G the “polymerase ribozyme fitness (log ratio)” value was no more than -4.2.
With U13G G68A C96U U101G C131U the “polymerase ribozyme fitness (log ratio)” value was no more than -4.2.
With U13G G80C G94U U134A the “polymerase ribozyme fitness (log ratio)” value was no more than -4.2.
For U13G G83C C99G C118G C123U A137G, the “polymerase ribozyme fitness (log ratio)” value was no more than -4.2.
In the case of U13G G83C U145C, the “polymerase ribozyme fitness (log ratio)” value is reported as -3.39.
In the case of U13G G84A C85A C116A G143C, the “polymerase ribozyme fitness (log ratio)” value is reported as no more than -4.2.
For U13G G84A C114A G136C, the “polymerase ribozyme fitness (log ratio)” value was no more than -4.2.
With U13G G84U the “polymerase ribozyme fitness (log ratio)” value was -3.13.
For U13G G92C, the “polymerase ribozyme fitness (log ratio)” value was -2.36.
For U13G U15G C36G U44A A73U A97G A115U U148G, the “polymerase ribozyme fitness (log ratio)” value was no more than -4.2.
In the case of U13G U31C A49C C75A C85G G143C, the “polymerase ribozyme fitness (log ratio)” value is reported as no more than -4.2.
With U13G U33G C54U the “polymerase ribozyme fitness (log ratio)” value was no more than -4.2.
With U13G U33G U56A A60U G143U the “polymerase ribozyme fitness (log ratio)” value was no more than -4.2.
With U13G U44A G124C U144G the “polymerase ribozyme fitness (log ratio)” value was no more than -4.2.
In the case of U13G U53A C87U A89C, the “polymerase ribozyme fitness (log ratio)” value is reported as no more than -4.2.
For U13G U55A G74C A115G A120U, the “polymerase ribozyme fitness (log ratio)” value was no more than -4.2.
For U13G U55A G94A G100A G140U, the “polymerase ribozyme fitness (log ratio)” value was -4.11.
With U13G U56A C57U C87A G88C A89U A121U C125A U148A the “polymerase ribozyme fitness (log ratio)” value was no more than -4.2.
In the case of U13G U61A U111A, the “polymerase ribozyme fitness (log ratio)” value is reported as no more than -4.2.
With U13G U77C C87A C93U U127G the “polymerase ribozyme fitness (log ratio)” value was no more than -4.2.
In the case of U13G U77G A107U, the “polymerase ribozyme fitness (log ratio)” value is reported as no more than -4.2.
In the case of C14A A16G, the “polymerase ribozyme fitness (log ratio)” value is reported as -0.651.
For C14A A16G A20G U56A U82G A106G, the “polymerase ribozyme fitness (log ratio)” value was -3.04.
With C14A A16G U45A U55G U61A G65U G94C C96U U101G the “polymerase ribozyme fitness (log ratio)” value was no more than -4.2.
In the case of C14A A16U A19G G25C U53A C54U U56A G65U A106G C116U G143C, the “polymerase ribozyme fitness (log ratio)” value is reported as no more than -4.2.
With C14A A16U A19U A52G G68A C85G U151G the “polymerase ribozyme fitness (log ratio)” value was no more than -4.2.
With C14A A16U A49G G50A C57A A60G C95G U101C A110G the “polymerase ribozyme fitness (log ratio)” value was no more than -4.2.
In the case of C14A A17C A26G C57U A60C C85G C96U A97U C108U A142C, the “polymerase ribozyme fitness (log ratio)” value is reported as no more than -4.2.
For C14A A17C A41C C96U A115U G141A, the “polymerase ribozyme fitness (log ratio)” value was no more than -4.2.
In the case of C14A A17C G58U G84A U102G G126C G140C U144A, the “polymerase ribozyme fitness (log ratio)” value is reported as no more than -4.2.
In the case of C14A A17G A22U A24C A41C G70A U78A U90C C129U, the “polymerase ribozyme fitness (log ratio)” value is reported as no more than -4.2.
With C14A A17G U31A G59A C75G C95U U101G A113U A121U the “polymerase ribozyme fitness (log ratio)” value was no more than -4.2.
In the case of C14A A17U A24C C57U G58C C87A, the “polymerase ribozyme fitness (log ratio)” value is reported as no more than -4.2.
